Experimental data as given in PubChem BioAssay AID759 (NMMLSC, 2007).
About 270 (0.14%) of roughly 190,000 compounds were called active. The shares of active, inactive and inconclusive entries below differ from those in the screen.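 How the source made its calls: active means GTP binding activity at least 20% away from the 100% baseline, either lowered as inhibitor or raised as activator; inconclusive means flagged as likely green fluorescent, judged across all proteins in the well; inactive means the rest.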

The compounds below were run against GTPase HRas (Homo sapiens) (UniProt P01112) (assay: HRas wt fluorescent GTP binding changes, either direction – biochemical, wildtype, bead-based flow cytometry, multiplex, primary screen (AID 759;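 further: 0% = unlabeled GTP competition control and 100% = no-compound control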)). Details: GST-Ras wt beads, Bodipy-FL-GTP binding, at 10 µM, actives lie on both sides.
UniProt P01112, sequence (P01112 whole entry, looked up): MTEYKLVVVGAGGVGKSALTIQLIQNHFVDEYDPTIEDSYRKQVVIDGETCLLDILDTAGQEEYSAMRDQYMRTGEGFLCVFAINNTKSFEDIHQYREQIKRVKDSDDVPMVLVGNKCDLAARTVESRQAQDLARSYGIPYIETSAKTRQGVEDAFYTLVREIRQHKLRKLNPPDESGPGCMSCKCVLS
With `O=C(NCc1cccs1)c1cc(-c2ccccc2)on1` the GTP binding activity was inconclusive: 96%.
`COC(=O)CSc1nc2c(c(=O)[nH]c(=O)n2C)n1CCC(C)C` was tested, and the GTP binding activity was inconclusive: 108%.
`O=C(O)c1ccc(Nc2nc(-c3cccnc3)nc3ccccc23)cc1` was tested, and the GTP binding activity was inconclusive: 71%.
In the case of `CSCCC(NC(=O)c1ccccc1C)C(=O)O` (centres undefined), the GTP binding activity is reported as inconclusive: 95%.
With `COc1cc(/C=C2/SC(=Nc3ccc(O)cc3)NC2=O)cc(OC)c1O` the GTP binding activity was active: 74%.
In the case of `CN(C)S(=O)(=O)c1cc(NC2CC(=O)N(c3ccc(F)cc3)C2=O)ccc1Cl` (centres undefined), the GTP binding activity is reported as inconclusive: 94%.
With `Cc1ccc(C(=O)O/N=C/C2=C(Cl)c3ccccc3CC2)cc1` the GTP binding activity was inconclusive: 91%.
`CSc1nc(-c2ccccc2)cn1-c1ccc(NC(C)=O)cc1` was tested, and the GTP binding activity was inconclusive: 91%.
In the case of `N#Cc1c(-c2ccccc2)nc(SCC(=O)Nc2ccccc2)[nH]c1=O`, the GTP binding activity is reported as inconclusive: 67%.
With `CN(CCNC(=O)C1(O)c2ccccc2NC(=O)N1c1ccccc1)Cc1ccccc1` (centres undefined) the GTP binding activity was inconclusive: 105%.
For `CSc1nnc(C)c(/C=C/Nc2ccc(F)cc2)n1`, the GTP binding activity was inactive: 94%.
In the case of `O=S(=O)(Nc1cccc(-c2cn3cccnc3n2)c1)c1ccc(Cl)cc1`, the GTP binding activity is reported as inconclusive: 93%.
In the case of `O=C(CSc1nc2ccccc2c(=O)[nH]1)N1CCCCCC1`, the GTP binding activity is reported as inconclusive: 104%.
With `O=C(COc1ccc2ccccc2c1)Nc1ccc2c3c(cccc13)CC2` the GTP binding activity was inconclusive: 94%.
`COc1ccccc1NC(=O)c1c(N=Cc2ccccc2O)cnn1C` was tested, and the GTP binding activity was inconclusive: 93%.
In the case of `CCOCC(=O)Nc1ncc(S(=O)(=O)c2ccc([N+](=O)[O-])cc2)s1`, the GTP binding activity is reported as inactive: 91%.
For `CC(C)Oc1cc(N)c(Cl)cc1Cl`, the GTP binding activity was inactive: 95%.
In the case of `CCCN(CCC)c1cc(Cl)nc(N)n1`, the GTP binding activity is reported as inconclusive: 95%.
With `O=C(COc1ncnc2cc([N+](=O)[O-])ccc12)NCc1ccc2c(c1)OCO2` the GTP binding activity was inconclusive: 74%.
For `CCOc1cc(C2C(C#N)=C(N)OC3=C2C(=O)CC(C)(C)C3)cc([N+](=O)[O-])c1O` (centres undefined), the GTP binding activity was inconclusive: 91%.
In the case of `Cc1[nH]c2ccccc2c1C(=O)CNc1nccs1`, the GTP binding activity is reported as inconclusive: 413%.
With `CCC(C)(C)NC(=O)c1ccc(S(=O)(=O)N(C)c2ccccc2OC)cc1` the GTP binding activity was inconclusive: 91%.
With `COc1ccc(S(=O)(=O)N(C)CC(=O)N2CCOCC2)cc1Cl` the GTP binding activity was inconclusive: 90%.
With `COc1ccccc1-n1c(=O)c2c3c(sc2n2c(=S)[nH]nc12)CCC3` the GTP binding activity was inconclusive: 93%.
`CCCOc1ccc(N2CC(C(=O)Nc3ccc(N4CCOCC4)cc3)CC2=O)cc1` (centres undefined) was tested, and the GTP binding activity was inactive: 97%.
In the case of `Cc1ccc2[nH]cc(C(=O)CCl)c2c1`, the GTP binding activity is reported as inconclusive: 103%.
With `Cc1c(Cl)sn(-c2ccc(Cl)cc2)c1=O` the GTP binding activity was inactive: 95%.
For `CCOC(=O)N1CCC(NC(=O)CCc2c(C)nc3c(c(C)nn3C(C)(C)C)c2C)CC1`, the GTP binding activity was inconclusive: 102%.
In the case of `COc1cc(NC(=O)c2cccs2)c(OC)cc1NC(=O)CCC(=O)Nc1ccc2ncccc2c1`, the GTP binding activity is reported as active: 72%.
With `COc1ccc(S(=O)(=O)N2CCOCC2)cc1NC(=O)CSc1ncnc2ccccc12` the GTP binding activity was inactive: 93%.
`N=c1c(C(=O)NCc2ccco2)cc2c(=O)n3ccccc3nc2n1CCc1ccccc1` was tested, and the GTP binding activity was active: 77%.
In the case of `O=c1cc(-c2ccccc2)n(S(=O)(=O)c2ccccc2)o1`, the GTP binding activity is reported as inactive: 97%.
In the case of `COc1cc(/C=N/NC(=S)Nc2cccc(C(=O)O)c2)cc(OC)c1OC`, the GTP binding activity is reported as inconclusive: 95%.
For `Cc1ccc(C(=O)CC(=O)COc2ccc(Cl)cc2C)cc1`, the GTP binding activity was inconclusive: 92%.
In the case of `CCC(=O)N1c2ccc(S(=O)(=O)N(CCO)Cc3ccccc3)cc2CC1C` (centres undefined), the GTP binding activity is reported as inconclusive: 104%.
For `Cc1ccc2sc(N(CCCN(C)C)C(=O)CN3C(=O)c4ccccc4C3=O)nc2c1C`, the GTP binding activity was inactive: 93%.
In the case of `O=C(COC(=O)/C=C/c1ccc(Cl)cc1)Nc1ccc2c(c1)OCCO2`, the GTP binding activity is reported as inactive: 81%.
For `Cc1nn(C)c(C)c1CNC(=O)c1cnn2c1NC(c1ccccc1)CC2C(F)(F)F` (centres undefined), the GTP binding activity was inconclusive: 108%.
With `O=C(O)c1ccccc1SCc1ccc2c(c1)OCO2` the GTP binding activity was active: 123% [activator].
With `CCOC(=O)c1cc(C(=O)OCC)c2ccccn2c1=O` the GTP binding activity was active: 79%.
With `O=C(Cn1cnc2c(nnn2Cc2ccc(F)cc2)c1=O)NC1CCCC1` the GTP binding activity was inconclusive: 97%.
In the case of `Cc1ccc(-c2ccc(/C=C(\C#N)C(=O)Nc3cc(C)nn3-c3ccccc3)o2)cc1`, the GTP binding activity is reported as active: 127% [activator].
`CC(Oc1ccc(Cl)cc1Cl)c1nc(-c2ccc(NC(=O)c3ccccn3)cc2)no1` (centres undefined) was tested, and the GTP binding activity was inactive: 99%.
With `COc1ccc2oc(=O)c(C(=O)N3CCN(c4ccccc4F)CC3)cc2c1` the GTP binding activity was inconclusive: 96%.
`CCC(Oc1ccc2ccccc2c1)C(=O)O` (centres undefined) was tested, and the GTP binding activity was inconclusive: 124%.
In the case of `CC(C)(C)NS(=O)(=O)c1ccc(CCC(=O)N2CCCC2)cc1`, the GTP binding activity is reported as inactive: 90%.
With `O=C1CN(CC(=O)Nc2cccc(Cl)c2Cl)c2ccccc2N1` the GTP binding activity was inconclusive: 94%.
In the case of `C(=N\Nc1nc(Nc2ccccc2)nc(Nc2ccccc2)n1)/c1cccnc1`, the GTP binding activity is reported as inconclusive: 89%.
`CCc1nnc2c(N(C)C)nc3ccccc3n12` was tested, and the GTP binding activity was inactive: 89%.
With `O=C(CCc1nnc(CCCCc2ccccc2)o1)NCCN1CCCCC1=O` the GTP binding activity was inactive: 100%.
`CC1(C)CC(=O)c2c(O)cc(OCc3ccc([N+](=O)[O-])cc3)cc2O1` was tested, and the GTP binding activity was inconclusive: 105%.
For `O=C(N/N=C/c1cccc(O)c1)c1ccc(NC(=O)c2cccc([N+](=O)[O-])c2)cc1`, the GTP binding activity was inconclusive: 95%.
`CCCCn1c(N)c(Sc2ccc(C)cc2)c(=O)[nH]c1=O` was tested, and the GTP binding activity was inconclusive: 107%.
`O=C1c2ccccc2C(=O)N1CCCOc1ccccc1` was tested, and the GTP binding activity was inconclusive: 98%.
With `Cc1cnc(C(=O)OCC(=O)N(Cc2ccccc2)C(C)C)cn1` the GTP binding activity was inactive: 98%.
`O=C(NCCn1ccc2ccccc21)c1ccc(S(=O)(=O)N2CCOCC2)cc1` was tested, and the GTP binding activity was inactive: 103%.
With `O=C(OCc1cc2ccccc2[nH]c1=O)C1CCCO1` (centres undefined) the GTP binding activity was inconclusive: 104%.
In the case of `O=C(COC(=O)C1CCN(/C=C/C(=O)C(F)(F)F)CC1)Nc1cccc(F)c1`, the GTP binding activity is reported as inactive: 99%.
For `Cc1ccc(OCC(=O)N/N=C\c2ccc(O)cc2)c([N+](=O)[O-])c1`, the GTP binding activity was inconclusive: 91%.
